We go through 31 sequences from PMC12820563.

Some of the results follow. The list includes weakly bound sequences.

In this assay the target is T1, MBP-FoxP3dN (UniProt Q99JB6).
T1 sequence: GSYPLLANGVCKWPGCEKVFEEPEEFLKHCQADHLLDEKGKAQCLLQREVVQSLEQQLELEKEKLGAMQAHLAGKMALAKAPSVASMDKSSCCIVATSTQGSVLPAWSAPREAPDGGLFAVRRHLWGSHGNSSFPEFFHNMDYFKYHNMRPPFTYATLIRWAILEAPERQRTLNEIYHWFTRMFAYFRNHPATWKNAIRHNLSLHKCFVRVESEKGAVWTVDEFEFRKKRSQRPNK
Put plainly: PD-seq (MBP pull-down with sequencing). Conditions: 20 mM Tris-HCl pH 7.5, 100 mM NaCl, 1.5 mM MgCl2, 0.4 uM protein, 0.1 uM dsDNA library, 30 min, room temperature, amylose pull-down; high values mean tight binding; double strand, one strand shown.
For the sequence “GATGATTGTTCTCCCAGCTGATGAATTTGAAGCATCGAGTAAACAAATTTTCCTAATCTTTCTGTTCAAGCGCCATCTAC”, the binding signal (RPM ratio (pull-down/input)) was 0.792.
For the sequence “GATGATTGTTCTCCCAGCTGATGAATTACGTTACTCGAGTAAACAAATTTTCCTAATCTTTCTGTTCAAGCGCCATCTAC”, the binding signal (RPM ratio (pull-down/input)) stood at 1.32.
In the case of “GATGATTGTTCTCCCAGCTGATGAATTCTTCTATTCGAGTAAACAAATTTTCCTAATCTTTCTGTTCAAGCGCCATCTAC”, the binding signal (RPM ratio (pull-down/input)) is 0.277.
In the case of “GATGATTGTTCTCCCAGCTGATGAATTAGGAGCGTCGAGTAAACAAATTTTCCTAATCTTTCTGTTCAAGCGCCATCTAC”, the binding signal (RPM ratio (pull-down/input)) stood at 0.479.
Regarding “GATGATTGTTCTCCCAGCTGATGAATTCGACACGTCGAGTAAACAAATTTTCCTAATCTTTCTGTTCAAGCGCCATCTAC”, the binding signal (RPM ratio (pull-down/input)) was determined as 0.687.
With “GATGATTGTTCTCCCAGCTGATGAATTTGAGAATTCGAGTAAACAAATTTTCCTAATCTTTCTGTTCAAGCGCCATCTAC” the figure was 0.708; with “GATGATTGTTCTCCCAGCTGATGAATTCTGTCTCTCGAGTAAACAAATTTTCCTAATCTTTCTGTTCAAGCGCCATCTAC”, 1.29.
The same measure for “GATGATTGTTCTCCCAGCTGATGAATTACGCGCATCGAGTAAACAAATTTTCCTAATCTTTCTGTTCAAGCGCCATCTAC”: 1.54; for “GATGATTGTTCTCCCAGCTGATGAATTGCACTAATCGAGTAAACAAATTTTCCTAATCTTTCTGTTCAAGCGCCATCTAC”: 0.711.
The same measure for “GATGATTGTTCTCCCAGCTGATGAATTGACGGTTTCGAGTAAACAAATTTTCCTAATCTTTCTGTTCAAGCGCCATCTAC”: 0.526; for “GATGATTGTTCTCCCAGCTGATGAATTCAAGGTCTCGAGTAAACAAATTTTCCTAATCTTTCTGTTCAAGCGCCATCTAC”: 0.427; for “GATGATTGTTCTCCCAGCTGATGAATTACTGTACTCGAGTAAACAAATTTTCCTAATCTTTCTGTTCAAGCGCCATCTAC”: 0.488.
“GATGATTGTTCTCCCAGCTGATGAATTCGCTGTGTCGAGTAAACAAATTTTCCTAATCTTTCTGTTCAAGCGCCATCTAC”: the binding signal (RPM ratio (pull-down/input)) is 1.94.
Turning to “GATGATTGTTCTCCCAGCTGATGAATTTTGGGAGTCGAGTAAACAAATTTTCCTAATCTTTCTGTTCAAGCGCCATCTAC”, the binding signal (RPM ratio (pull-down/input)) is 0.255.
The same measure for “GATGATTGTTCTCCCAGCTGATGAATTACCGGCATCGAGTAAACAAATTTTCCTAATCTTTCTGTTCAAGCGCCATCTAC”: 0.768; for “GATGATTGTTCTCCCAGCTGATGAATTGCCATTCTCGAGTAAACAAATTTTCCTAATCTTTCTGTTCAAGCGCCATCTAC”: 1.08; for “GATGATTGTTCTCCCAGCTGATGAATTCCTGTAATCGAGTAAACAAATTTTCCTAATCTTTCTGTTCAAGCGCCATCTAC”: 0.568.
For “GATGATTGTTCTCCCAGCTGATGAATTAGCCGTCTCGAGTAAACAAATTTTCCTAATCTTTCTGTTCAAGCGCCATCTAC”, the binding signal (RPM ratio (pull-down/input)) amounted to 0.412.
For the sequence “GATGATTGTTCTCCCAGCTGATGAATTCAAATAATCGAGTAAACAAATTTTCCTAATCTTTCTGTTCAAGCGCCATCTAC”, the binding signal (RPM ratio (pull-down/input)) amounted to 0.448.
With “GATGATTGTTCTCCCAGCTGATGAATTAAGTAATTCGAGTAAACAAATTTTCCTAATCTTTCTGTTCAAGCGCCATCTAC” the figure was 1.05; with “GATGATTGTTCTCCCAGCTGATGAATTGTGGTCGTCGAGTAAACAAATTTTCCTAATCTTTCTGTTCAAGCGCCATCTAC”, 0.851.
The same measure for “GATGATTGTTCTCCCAGCTGATGAATTCGAACGGTCGAGTAAACAAATTTTCCTAATCTTTCTGTTCAAGCGCCATCTAC”: 0.222; for “GATGATTGTTCTCCCAGCTGATGAATTTTAGACATCGAGTAAACAAATTTTCCTAATCTTTCTGTTCAAGCGCCATCTAC”: 0.45; for “GATGATTGTTCTCCCAGCTGATGAATTACACACGTCGAGTAAACAAATTTTCCTAATCTTTCTGTTCAAGCGCCATCTAC”: 0.634.
With “GATGATTGTTCTCCCAGCTGATGAATTCGAAACCTCGAGTAAACAAATTTTCCTAATCTTTCTGTTCAAGCGCCATCTAC” the figure was 0.261.
With “GATGATTGTTCTCCCAGCTGATGAATTCAGCACATCGAGTAAACAAATTTTCCTAATCTTTCTGTTCAAGCGCCATCTAC”, the binding signal (RPM ratio (pull-down/input)) turned out to be 0.711.
“GATGATTGTTCTCCCAGCTGATGAATTTGCATCATCGAGTAAACAAATTTTCCTAATCTTTCTGTTCAAGCGCCATCTAC”: the binding signal (RPM ratio (pull-down/input)) was found to be 6.33.
The same measure for “GATGATTGTTCTCCCAGCTGATGAATTGGTGGCCTCGAGTAAACAAATTTTCCTAATCTTTCTGTTCAAGCGCCATCTAC”: 0.837; for “GATGATTGTTCTCCCAGCTGATGAATTATCAACATCGAGTAAACAAATTTTCCTAATCTTTCTGTTCAAGCGCCATCTAC”: 1.44.
Consider “GATGATTGTTCTCCCAGCTGATGAATTGCGGTCCTCGAGTAAACAAATTTTCCTAATCTTTCTGTTCAAGCGCCATCTAC”, for which the binding signal (RPM ratio (pull-down/input)) was determined as 0.73.
For “GATGATTGTTCTCCCAGCTGATGAATTAGGACCATCGAGTAAACAAATTTTCCTAATCTTTCTGTTCAAGCGCCATCTAC”, the binding signal (RPM ratio (pull-down/input)) was determined as 0.499.
